From PubChem BioAssay AID493208 (National Center for Advancing Translational Sciences (NCATS), 2011)
The campaign covered roughly 44,000 compounds. About 340 (0.77%) were called active. This list was built around the results that the source calls inconclusive (neither active nor inactive); the mix of calls is not that of the screen. The call rests on the fitted dose curve; in most records, active means well fitted inhibition curve with a large enough effect; inconclusive means small, poorly fitted or top-dose-only effect; inactive means flat fitted curve, though single readings scatter. Potencies of inconclusive entries are left out as doubtful fits.

assay: Acumen qHTS Assay for Inhibitors of the mTORC1 Signaling Pathway in MEF (Tsc2-/-, p53-/-) Cells: Sytravon; conditions: phospho-rpS6 immunofluorescence/PI, 24 h; series mostly up to 38.3 µM; further: nearly all actives have a fitted effect of over 50% in size
In short: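 Plate MEFs (Tsc2-/-, p53-/-, empty vector) in DMEM/10% FBS; after 24 h add compound, incubate 24 h at 37 degree Celsius; fix in PFA/TX-100, block, stain phospho-rpS6 and 10 uM PI; scan at 488 nm; report % positive cells.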
Potency means the concentration at half of the fitted maximal effect; tags describe the fitted curve by direction and shape.

SMILES | Potency
O=C(Nc1cccc(C(F)(F)F)c1)c1cnn(-c2cccc(F)c2)c1C1CCNCC1 | active: 18.5 µM
CCOc1ccc(NC(=O)Cn2c(=O)n(CCCCCC(=O)NCc3ccccc3)c(=O)c3sccc32)cc1 | inconclusive [falling, single point]
O=S(=O)(NCCc1csc2nc(-c3ccccc3)nn12)c1cc(F)ccc1F | inactive
COc1ccc(-c2nc3ccccc3s2)cc1NC(=O)c1ccccc1F | inactive
CCOCCCNC(=O)c1ccc(-n2c(-c3ccccc3)cc3c2CCC(C)C3)cc1 (configuration not stated) | inconclusive [falling, single point]
Cc1cccc(C)c1Nc1c(-c2ccccn2)nc2c(C)cccn12 | inactive
COc1cc(S(=O)(=O)NCCc2c(C)[nH]c3ccccc23)c(C)cc1C | inconclusive [falling, partial curve, poor fit]
CCN(CC)CCCNc1ncnc2c1cnn2-c1ccc(C)c(C)c1 | inconclusive [falling, single point]
Cc1csc2nc(COc3cccc(NC(=O)c4ccccc4F)c3)cc(=O)n12 | inconclusive [falling, single point]
CCOc1ccc(NC(=O)c2c(NC(=O)Cc3ccccc3)sc3c2CCCCC3)cc1 | inconclusive [falling, single point]
Cc1ccc(NC(=O)CSc2cn(CC(=O)N3CCCC3)c3ccccc23)cc1Cl | inconclusive [falling, single point]
CCOc1ccc(NS(=O)(=O)c2ccc3c(c2)CCCN3C(=O)C2CCC2)cc1 | inconclusive [falling, partial curve, poor fit]
CN1CCc2c(sc3c2C(=O)NC(c2ccc(C(C)(C)C)cc2)N3)C1 (configuration not stated) | inactive
Cc1nnc(NC(=O)CSCc2cc(=O)c3ccccc3[nH]2)s1 | inconclusive [falling, partial curve]
CN(C)CCNc1oc(-c2ccc(COc3ccc(Cl)cc3)o2)nc1C#N | inconclusive [falling, single point]
CCCCNC(=O)CSc1nc2n[nH]c(C)c2c(=N)n1-c1cccc(Cl)c1C | inconclusive [falling, single point]
COc1ccc(S(=O)(=O)Nc2ccc3oc4c(c3c2)CCCC4)cc1 | inconclusive [falling, partial curve, poor fit]
O=C(CCSCc1cccc(Cl)c1)N1CCN(c2ccc(Cl)cc2)CC1 | inactive
Cc1ccc(C)c(CN2C(=O)C(O)(c3c(C)[nH]c4ccccc34)c3ccccc32)c1 (configuration not stated) | inconclusive [falling, partial curve]
COc1ccccc1NC(=O)c1c(NCc2ccc(C)o2)sc2c1CCCCC2 | inconclusive [falling, single point]
CCOC(=O)N1CCc2c(sc3c2C(=O)NC(c2cc(OC)c(OC)c(OC)c2)N3)C1 (configuration not stated) | inconclusive [falling, full curve]

SMILES | Potency
Cc1cccc2c1N(Cc1ccccc1OCCC(C)C)C(=O)C2=O | inconclusive [falling, single point]
O=C(Nc1ccc(Br)cc1F)c1cc(S(=O)(=O)NC2CCCCC2)ccc1F | inconclusive [falling, partial curve]
CCOC(=O)c1ccc(NC(=O)CSc2nc3cc4ccccc4cc3[nH]2)cc1 | inconclusive [falling, partial curve, poor fit]
CC1=C(C(=O)OCC2CCCCC2)C(c2ccc(Cl)cc2)CC(=O)N1 (configuration not stated) | inconclusive [falling, single point]
CCOC(=O)c1ccc(NC(=O)c2cnc(N3CCCC3)nc2C)cc1 | inactive
COc1ccc(C(=O)N2CCN(C(=O)COc3ccc(Br)cc3)CC2)cc1OC | inconclusive [falling, single point]
Cc1cc(C)cc(OCC(=O)Nc2ccc(-c3nc4ncccc4o3)cc2C)c1 | inconclusive [falling, single point]
COc1cccc(C(=O)Nc2ccccc2-c2nc(-c3ccc(C)cc3)no2)c1 | inconclusive [falling, partial curve, poor fit]
c1ccc(N2CCN(c3ncnc4[nH]ncc34)CC2)cc1 | active: 14.7 µM
CCCNS(=O)(=O)c1cc(-c2nnc3c4ccccc4c(C)nn23)ccc1OC | inconclusive [falling, full curve, poor fit]
COc1cccc(-c2n[nH]c3c2C(c2ccccn2)N(C)C3=O)c1 (configuration not stated) | inactive
CCS(=O)(=O)c1ncc(Cl)c(C(=O)N(Cc2ccccc2)c2ccc(OC)cc2)n1 | active: 2.61 µM
Cc1ccc(C)c(NC(=O)Cn2c(=O)n(Cc3ccc4c(c3)OCO4)c(=O)c3ccccc32)c1 | inconclusive [falling, single point]
CC(C)OCCCN1C(=O)c2[nH]nc(-c3ccccc3O)c2C1c1cccc(OCc2ccccc2)c1 (configuration not stated) | inconclusive [falling, single point]
COc1ccc(C)cc1NC(=O)C(=O)NCC1(c2ccccc2)CCCC1 | inactive
CC(C)(C)c1ccc(C2NC(=O)c3n[nH]c(-c4cccs4)c32)cc1 (configuration not stated) | inconclusive [falling, partial curve]
CCOc1ccc(/C=C/c2nc(C#N)c(NC(C)CC)o2)cc1 (configuration not stated) | inconclusive [falling, partial curve, poor fit]
COc1cc(NC(=O)c2nc3ccccc3nc2C)cc(OC)c1OC | inactive
Cc1ccccc1OCc1ccc(-c2nc(C#N)c(N3CCN(C)CC3)o2)o1 | inconclusive [falling, partial curve, poor fit]
O=C(CCS(=O)(=O)c1cc2c(cc1Cl)NC(=O)CO2)NCCc1ccc(Cl)cc1 | inconclusive [falling, single point]
CC(C)Oc1ccc(CNC(=O)CCn2c(=O)c3cccn3c3ccc(F)cc32)cc1 | inconclusive [falling, partial curve, poor fit]
